The source of these data is PMC5472784, “Pyrazinamide and derivatives block ethylene biosynthesis by inhibiting ACC oxidase” (Nature Communications, 2017).

SMILES strings stand for the structures.

What all share (format): binding
One experiment concerns the target AtACO2 K161A (Arabidopsis thaliana, UniProt Q41931, K161A). To be noted: ITC, compared with wild-type AtACO2. The procedure: (§1) ITC experiments were performed using a MicroCal iTC200 (GE Healthcare) at 25 °C. Small molecules and proteins were in the same buffer containing 25 mM Bis–Tris (pH 6.0), 150 mM NaCl, 0.1 mM ZnCl2 (or 0.2 mM FeSO4 for POA and AtACO2). The concentration of small molecules in the syringe was 1 mM, and the concentration of proteins in the cell was 90 μM. Data were analysed with a one-site model using Origin 7.0 (OriginLab).
A general note: Isothermal titration calorimetry measures the heat released or taken up as one component is titrated into another.

A further experiment has as its target AtACO2 K161A/F253A (Arabidopsis thaliana, UniProt Q41931, F253A/K161A). Particulars: ITC, in the presence of Zn2+. The method, then:
as §1

The next experiment concerns the target AtACO2 H180A (Arabidopsis thaliana, UniProt Q41931, H180A). To be noted: ITC, in the presence of Zn2+. The procedure: as §1
The target of another experiment is AtACO2 K161A/A251L (Arabidopsis thaliana, UniProt Q41931, A251L/K161A). To be noted: ITC, in the presence of Zn2+. The procedure: as §1

For the molecule `O=C(O)c1ccccn1` [2-PA, 2-picolinic acid], on AtACO2 K161A, the “binding to AtACO2 K161A” value is “reduced the binding”. The “binding to AtACO2 K161A/F253A” value on AtACO2 K161A/F253A is on record as “completely abolished binding”. In addition, on AtACO2 H180A, the “interaction with AtACO2 H180A” value is given as “abolished the interaction”. The “binding to AtACO2 K161A/A251L” value on AtACO2 K161A/A251L is listed as “completely abolished binding”.
Regarding `O=C(O)c1cnccn1` [POA, pyrazinecarboxylic acid], the “binding to AtACO2 K161A” value on AtACO2 K161A was “reduced the binding”. Besides, at AtACO2 K161A/F253A, the “binding to AtACO2 K161A/F253A” value is given as “completely abolished binding”. Besides, the “interaction with AtACO2 H180A” value on AtACO2 H180A is “abolished the interaction”. Besides, the “binding to AtACO2 K161A/A251L” value on AtACO2 K161A/A251L was “completely abolished binding”.
